# Test results: the supplement of paper PMC10498489
# The whole screen tested about 2,300 compounds, of which about 330 (14%) showed activity.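 The calls were made as follows: active = median modified Z-score above 1.96; inactive = 1.96 or below.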 Only a part is listed here, and it is no random draw.
# Tested on: HepG2 Srxn1-GFP reporter cells (+30 nM CDDO-Me)
# Test: Srxn1-GFP intensity median modified Z-score relative to plate median; higher = stronger NRF2 / oxidative stress reporter activation, active = hit call of the paper
# Conditions: 10 µM; exposure time: 24h
# In short: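 Each value is the replicate median of a per-plate modified Z-score for GFP intensity in HepG2 Srxn1-GFP BAC reporter cells. The cells (20,000 per well, 96-well plates, three replicate plates) received compound at 10 μM together with an NRF2 activator at 30 nM for 24 h, in ≤0.1% DMSO. Cytoplasmic GFP was quantified per cell from confocal images of formaldehyde-fixed, Hoechst-stained cells, leaving out images with fewer than 100 cells, and scaling used 1.4826 × median absolute deviation.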
row,SMILES,Srxn1-GFP intensity median modified Z-score
1,Cc1ccc(S(=O)(=O)NC(=O)NN2CCCCCC2)cc1 [euspeclibcmpd417],inactive: -0.293
2,COc1c(O)cc2oc3cc(O)c(CC=C(C)C)c(O)c3c(=O)c2c1C=CC(C)C [euspeclibcmpd1547],active: 34.4
3,COC(=O)C1=C(C)N=C(C)C(C(=O)OCC(C)C)C1c1ccccc1[N+](=O)[O-] (stereo not given) [euspeclibcmpd766],active: 10.8
4,O=C(COc1ccc(Cl)cc1)N1CCN(Cc2ccc3c(c2)OCO3)CC1 [euspeclibcmpd1129],inactive: -0.239
5,CCN(CC)CCNc1ccc(CO)c2sc3ccccc3c(=O)c12 [euspeclibcmpd550],active: 13.8
6,COc1ccc(C(=O)NCc2ccc(CN(C)C)cc2)cc1OC,inactive: 0.376
7,COc1cc(C/C=C/c2ccccc2)c(OC)cc1O [euspeclibcmpd1352],inactive: -0.408
8,COc1ccc(-c2oc3ccccc3c(=O)c2OC)cc1 [euspeclibcmpd1341],inactive: 0.287
9,NCC1CCC(C(=O)O)CC1 (stereo not given) [euspeclibcmpd963],inactive: 0.0193
10,CN1CCCN=C1COC(=O)C(O)(c1ccccc1)C1CCCCC1 (stereo not given) [euspeclibcmpd639],inactive: -0.754
11,C[C@H]1[C@H](C)CC[C@]2(C(=O)O)CC[C@]3(C)C(=CCC4[C@@]5(C)C[C@@H](O)[C@H](O)[C@@](C)(CO)C5[C@H](O)C[C@]43C)[C@H]12 (stereo not given in full) [euspeclibcmpd1692],inactive: -0.252
12,N#CC(c1ccc(Cl)cc1)c1c(Cl)cc(-n2ncc(=O)[nH]c2=O)cc1Cl (stereo not given) [euspeclibcmpd478],active: 15
13,COc1cc(OC)c(C(=O)CCCN2CCCC2)c(OC)c1 [euspeclibcmpd1235],inactive: -0.587
14,CCCN(CCC)C(=O)C(CCC(=O)O)NC(=O)c1ccccc1 (stereo not given) [euspeclibcmpd382],inactive: -0.139
15,CC(=O)OC1C[C@@]2(C)C(C[C@@H](O)C3[C@]2(C)CC[C@H]2[C@H](C)[C@H](O)CC[C@]32C)C1=C(CCC=C(C)C)C(=O)O (stereo not given in full) [euspeclibcmpd136],inactive: -0.739
16,COc1ccccc1N1CCN(CC(O)COc2cccc3ccccc23)CC1 (stereo not given) [euspeclibcmpd1202],inactive: -1.09
17,CCOC(=O)C(C)(C)Oc1ccc(Cl)cc1 [euspeclibcmpd583],inactive: 0.232
18,Cc1cc(=NC(=O)C2C(=O)c3ccccc3S(=O)(=O)N2C)[nH]o1 (stereo not given) [euspeclibcmpd552],inactive: -0.344
19,CCC(NC(C)C)C(O)c1ccc(O)c(O)c1 (stereo not given) [euspeclibcmpd894],inactive: -0.845
20,CCC(Cc1c(I)cc(I)c(N)c1I)C(=O)O (stereo not given) [euspeclibcmpd634],inactive: 0.149
21,NCCCCNCCCN [euspeclibcmpd1502],inactive: -0.202
22,CC(=O)C1CCC2C3=CC=C4CC(=O)CC[C@@]4(C)C3CC[C@]12C (stereo not given in full) [euspeclibcmpd815],inactive: 1.45
23,CC(C)(C(=O)c1cccnc1)c1cccnc1 [euspeclibcmpd907],inactive: 0.0206
24,CNCCCN1c2ccccc2Sc2ccccc21,active: 2.13
25,CC(=O)N(O)CCCCCNC(=O)CCC(=O)N(O)CCCCCNC(=O)CCC(=O)N(O)CCCCCN [euspeclibcmpd84],inactive: -1.71

row,SMILES,Srxn1-GFP intensity median modified Z-score
1,CC1CCc2c(N3CCC(O)CC3)c(F)cc3c(=O)c(C(=O)O)cn1c23 (stereo not given) [euspeclibcmpd1083],inactive: -0.148
2,O=c1c2ccccc2oc2ccccc12 [euspeclibcmpd2406],inactive: -0.21
3,NC12CC3CC(CC(C3)C1)C2 [euspeclibcmpd17],inactive: -0.0376
4,N=c1[nH]c(=O)c2ncn(COC(CO)CO)c2[nH]1 [euspeclibcmpd487],inactive: 0.251
5,Cc1cc(=O)n(-c2ccccc2)n1C [euspeclibcmpd26],inactive: 0.212
6,CC=C(C1=CC(=O)C(OC)=CC1=O)c1ccccc1 [euspeclibcmpd1693],active: 3.26
7,CCCCCCCCCCCCCCCC(=O)NCCO [euspeclibcmpd1097],inactive: -0.436
8,O=C(O)c1ccccc1Nc1ccccc1 [euspeclibcmpd1737],inactive: -0.16
9,NS(=O)(=O)c1cc(C(=O)O)c(NCc2ccco2)cc1Cl [euspeclibcmpd135],inactive: -0.176
10,COc1ccc2ccc(=O)oc2c1 [euspeclibcmpd2146],inactive: 0.175
11,S=C1SCN(Cc2ccccc2)CN1Cc1ccccc1 [euspeclibcmpd1200],active: 10
12,O=C(O)c1cc2cc(Cl)ccc2[nH]1 [euspeclibcmpd2020],active: 1.97
13,CCn1c2cc(=N)ccc-2c2ccc(N)cc2c1-c1ccccc1 [euspeclibcmpd1148],active: 4.33
14,Cc1cc(C2CCCCC2)n(O)c(=O)c1 [euspeclibcmpd64],inactive: 0
15,O=C(CCCl)NCc1ccccc1 [euspeclibcmpd1227],inactive: -0.57
16,NS(=O)(=O)c1cc2c(cc1Cl)N=CNS2(=O)=O [euspeclibcmpd57],inactive: 0.155
17,CC1=CC2C(C(C)C)CCC(C)(O)C2CC1 (stereo not given) [euspeclibcmpd1360],inactive: -0.571
18,CCC1(CC)C(=O)CC=NC1=O [euspeclibcmpd1119],inactive: -0.354
19,NC(=O)c1ncn([C@@H]2O[C@H](CO)[C@@H](O)[C@H]2O)n1 [euspeclibcmpd267],inactive: 0.45
20,CON=C(C(=O)NC1C(=O)N2C(C(=O)OCOC(=O)C(C)(C)C)=C(/C=C\c3scnc3C)CSC12)c1csc(=N)[nH]1 (stereo not given) [euspeclibcmpd753],inactive: 0.022
21,O=C(Nc1ccc(C(=O)O)c(O)c1)c1ccccc1 [euspeclibcmpd776],inactive: 0.292
22,CCCN1C(=O)/C(=C/c2ccc(-n3ccnc3)cc2)SC1=S,active: 9.18
23,CO[C@@]1(NC(=O)Cc2cccs2)C(=O)N2C(C(=O)O)=C(COC(N)=O)CS[C@@H]21 [euspeclibcmpd2151],inactive: 0.193
24,CC1(C)CCC[C@]2(C)[C@H]3CC(=O)O[C@]3(C)CC[C@@H]12 [euspeclibcmpd1513],active: 11.6
25,CC(=O)c1ccc2c(c1)N(CCCN1CCC(CCO)CC1)c1ccccc1S2 [euspeclibcmpd2041],inactive: 1.15

row,SMILES,Srxn1-GFP intensity median modified Z-score
1,CNCC[C@H](Oc1cccc2ccccc12)c1cccs1 [euspeclibcmpd986],inactive: 1.68
2,CN(C)CC(=O)OCC(=O)C(O)C(O)C(O)C(O)O (stereo not given) [euspeclibcmpd2264],inactive: -0.422
3,O=C(CCCN1CCC(O)(c2ccc(Br)cc2)CC1)c1ccc(F)cc1 [euspeclibcmpd889],inactive: -0.326
4,COc1cc2c(cc1OC)C(=O)C(CC1CCN(Cc3ccccc3)CC1)C2 (stereo not given) [euspeclibcmpd685],inactive: -0.76
5,CCCCC(CC)CN1CN(CC(CC)CCCC)CC(C)(N)C1 (stereo not given) [euspeclibcmpd1036],active: 14.2
6,O=C1/C(=C/c2cccs2)CSC/C1=C/c1cccs1,active: 13.2
7,C=C1CC[C@H](O)C/C1=C/C=C1\CCCC2(C)C1CCC2C(C)CCCC(C)C (stereo not given in full) [euspeclibcmpd353],active: 2.95
8,Cc1[nH]c(=O)c(C#N)cc1-c1ccncc1 [euspeclibcmpd1241],active: 2.87
9,Oc1ccc(Cl)c2c1CCC2 [euspeclibcmpd2398],inactive: -0.113
10,O=C(Nc1ccccc1)c1ccccc1O [euspeclibcmpd8],inactive: 0.747
11,OC[C@H]1O[C@@H](Oc2ccc(Cl)cc2)[C@H](O)[C@@H](O)[C@H]1O,inactive: 1.18
12,Cc1ncc([N+](=O)[O-])n1CC(O)CCl (stereo not given) [euspeclibcmpd897],inactive: 0.383
13,COc1ccc(C2C(=O)c3ccccc3C2=O)cc1 [euspeclibcmpd444],inactive: -0.0394
14,Cc1cccc(C)c1NC(=O)C1CCCCN1C (stereo not given) [euspeclibcmpd653],inactive: -0.302
15,O=C(C=Cc1ccc(O)cc1)c1ccc(O)cc1O [euspeclibcmpd1984],active: 13.1
16,Cc1c(C(N)=O)cc([N+](=O)[O-])cc1[N+](=O)[O-] [euspeclibcmpd1108],inactive: -0.426
17,NC(=O)NC(=O)Cc1ccccc1 [euspeclibcmpd229],inactive: -0.0115
18,COc1ccc(C(=O)c2ccc(C)cc2)c(O)c1 [euspeclibcmpd1274],inactive: 0.455
19,CC(C)n1c(C=CC(O)CC(O)CC(=O)O)c(-c2ccc(F)cc2)c2ccccc21 (stereo not given) [euspeclibcmpd1968],active: 3.35
20,COc1ccc(-c2cc(=O)c3c(O)cc(O[C@@H]4O[C@H](CO[C@@H]5O[C@@H](C)[C@H](O)[C@@H](O)[C@H]5O)[C@@H](O)[C@H](O)[C@H]4O)cc3o2)cc1O [euspeclibcmpd1128],inactive: -0.0591
21,NC[C@H]1O[C@H](O[C@H]2[C@H](O)[C@@H](O[C@H]3O[C@H](CO)[C@@H](O)[C@H](N)[C@H]3O)[C@H](N)C[C@@H]2N)[C@H](N)C[C@@H]1O [euspeclibcmpd296],inactive: 0.0584
22,O=C(OCC(O)CO)c1ccccc1N=c1cc[nH]c2cc(Cl)ccc12 (stereo not given) [euspeclibcmpd1054],active: 4.38
23,C[C@]12CCC3c4ccc(O)cc4CCC3C1C[C@@H](O)[C@@H]2O (stereo not given in full) [euspeclibcmpd2155],inactive: -0.253
24,O=NN(CCCl)C(=O)NC1CCCCC1 [euspeclibcmpd457],inactive: 0.482
25,Cc1cccc(CN2CCN(C(c3ccccc3)c3ccc(Cl)cc3)CC2)c1 (stereo not given) [euspeclibcmpd177],inactive: -0.119
